These results are taken from patent publication US9433687B2, “Anti-Notch3 antibodies and antibody-drug conjugates” (Pfizer Inc., priority 2012, dated 2016).

In the experiment the test system is 37622A1 NSCLC patient-derived xenografts. Kind of experiment: 37622A1 patient derived NSCLC xenograft model. In kind it is in vivo, mouse. Particulars: 10 mg/kg iv Q4dx4. The source says: The effects of anti-Notch3 ADCs were examined in immunodeficient mice on the in vivo growth of human tumor xenografts that were established from fragments of freshly resected 37622A1 NSCLC tumors obtained in accordance with appropriate consent procedures (Asterand). The 37622A1 NSCLC patient-derived xenografts were subcutaneously passaged in vivo as fragments from animal to animal in nude (Nu/Nu) female mice. When the tumors reached a volume of 150 to 300 mm^3, they were staged to ensure uniformity of the tumor size among various treatment groups. The 37622A1 NSCLC patient-derived xenografts model was dosed intravenously four times every four days (Q4d×4) with PBS vehicle, humanized anti-Notch3 ADCs, control huNeg-8.8 ADCs and cisplatin at the doses provided in Table 19.

B1: hu28-vc6780 (conjugate)
heavy: EVQLVESGGGLVQPGGSLRLSCAASGFTFRDYGMTWVRQAPGKGLEWVAYISSGSNYIYYAEAVKGRFTISRDNAKNSLYLQMNSLRAEDTAVYYCARRGPFVLDAWGQGTLVTVSS[letters of human IgG1 constant region omitted]
light: DIQMTQSPSSLSASVGDRVTITCKASQSINRYLHWYQQKPGKAPKLLIYNANGLQTGVPSRFSGSGSGTDFTLTISSLQPEDFATYYCLQHNTWPDTFGGGTKVEIKRTVAAPSVFIFPPSDEQLKSGTASVVCLLNNFYPREAKVQWKVDNALQSGNSQESVTEQDSKDSTYSLSSTLTLSKADYEKHKVYACEVTHQGLSSPVTKSFNRGEC
B1: the tumor volume came out at 176 mm^3 (Day 4); 176 mm^3 (Day 7); 122 mm^3 (Day 11); 95 mm^3 (Day 14); 65 mm^3 (Day 18); 56 mm^3 (Day 21). The molecule also registered a tumor volume (Day 25) of 51 mm^3; a tumor volume (Day 28) of 51 mm^3; a tumor volume (Day 32) of 72 mm^3; a tumor volume (Day 35) of 92 mm^3; a tumor volume (Day 39) of 120 mm^3; a tumor volume (Day 42) of 151 mm^3. The tumor volume by setting is: (Day 46) 172 mm^3; (Day 49) 248 mm^3; (Day 53) 339 mm^3; (Day 56) 376 mm^3; (Day 60) 503 mm^3; (Day 63) 604 mm^3. Further, the tumor volume is, setting by setting: (Day 67) 888 mm^3; (Day 70) 773 mm^3; (Day 74) 881 mm^3; (Day 77) 1029 mm^3; (Day -1) 182 mm^3.
